# Measurements from the supplement of paper PMC3334620.
# Over roughly 33,000 sequences, “E-score (-0.5 to 0.5)” has its median near -0.013; the highest 2% begin near 0.3. The list shows a part of the results.
# Biological target: T1, Msn1 (UniProt P22148)
# T1 sequence: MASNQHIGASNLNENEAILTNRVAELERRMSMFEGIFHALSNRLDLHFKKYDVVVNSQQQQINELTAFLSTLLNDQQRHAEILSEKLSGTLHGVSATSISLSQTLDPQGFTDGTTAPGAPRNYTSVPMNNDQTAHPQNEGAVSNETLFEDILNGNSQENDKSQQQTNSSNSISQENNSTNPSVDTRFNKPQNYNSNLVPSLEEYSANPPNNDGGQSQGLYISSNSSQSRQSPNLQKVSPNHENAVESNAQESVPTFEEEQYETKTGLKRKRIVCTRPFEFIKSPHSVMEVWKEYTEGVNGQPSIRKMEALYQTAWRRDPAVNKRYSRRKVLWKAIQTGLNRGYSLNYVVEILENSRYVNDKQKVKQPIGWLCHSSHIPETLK
# Assay: PBM E-score (8-mer binding enrichment) (E-score (-0.5 to 0.5)); higher = stronger / more preferred TF binding; most listed sequences are background and not binding sites
# Conditions: protein concentration: 200 nM; construct: GST-full length
# Procedure, shortened: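 GST-tagged yeast TFs (full-length or DNA-binding domain) were made by PURExpress in vitro transcription/translation and applied at about 100-200 nM to universal all-10-mer Agilent arrays. The arrays were made double-stranded by primer extension, on fresh or once-stripped slides. Bound protein was detected with fluorescent anti-GST, and scans were normalised with masliner. Each ungapped eight-base word, pooled with its reverse complement, received an E-score (modified Wilcoxon-Mann-Whitney statistic) from the Universal PBM Analysis Suite.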
row,Sequence,PBM E-score
1,AGACCTGA,0.0302
2,TCCTTAGA,0.117
3,GTCATCAC,-0.0376
4,GCCTCTCC,-0.294
5,AATATTAG,0.131
6,ATCGCGCA,-0.0399
7,GAACACAA,0.0618
8,AAGCCATC,-0.026
9,ATGCTGAA,-0.0631
10,ATCCCCTG,-0.287
11,ACTGCTTG,-0.0699
12,ACTACAGA,0.149
13,TGATATAA,-0.139
14,CCGGCGAG,0.0887
15,GAGGGAGC,-0.414
16,AGGTTTAA,0.0706
17,CGTCAGTA,-0.102
18,AAAACGAG,-0.0903
19,GAGAAGCC,-0.291
20,TGCCCGAA,0.0762
21,GTATCCGA,0.11
22,GAAGTCGC,-0.0763

row,Sequence,PBM E-score
1,CCACGGAA,0.0464
2,ACGCCTTA,-0.15
3,GCTGTGCC,0.00582
4,CCAATAAG,-0.00719
5,GAGCTACC,-0.0916
6,CATTGACC,0.0616
7,ACTTCCAT,0.0709
8,GGGTCCTA,-0.0969
9,GGTCGCAC,-0.0298
10,CGACAACA,0.204
11,ATTTTCCA,0.139
12,CTTCATAA,0.0998
13,AATACCGC,0.0467
14,CCACTAGG,-0.279
15,CATATAAG,0.13
16,ACCGTATC,0.0317
17,AGGCTAAG,-0.177
18,CGATTACC,-0.134
19,CTTCGCTA,-0.0488
20,AGACAAAT,0.482
21,TCAGAGAA,-0.0706
22,CTTCGGTA,-0.0133

row,Sequence,PBM E-score
1,AGTTCGAA,0.113
2,CACTGACC,-0.0291
3,GTAACAAA,0.125
4,CTCTCAAC,-0.112
5,GCCTCTTA,-0.05
6,ACCTCACG,-0.15
7,CTAATGCC,-0.0689
8,GGTATCGA,0.0605
9,AGAGGATG,-0.171
10,AACACAGG,-0.109
11,CGTGAACC,-0.0965
12,AAGCGGCG,-0.0525
13,GAGTGGGC,-0.112
14,AATTCTGC,0.0265
15,CACAACCA,0.123
16,TACATCAA,-0.0704
17,CCGACTCG,0.0163
18,AGATTTGG,-0.123
19,GCCTGTAC,0.13
20,CACTTCGC,-0.0275
21,GGGAACCC,-0.186
22,CATGAAAA,0.218

row,Sequence,PBM E-score
1,CCGGCTCG,0.115
2,CGACGAGA,0.0183
3,CGGACACG,0.338
4,AACTGTAG,-0.167
5,AAGTATCC,-0.0327
6,CGGGGGTC,-0.376
7,AAATACAA,0.22
8,AGACCACT,-0.101
9,AATAAGTC,0.274
10,GCCAGCGA,-0.21
11,AACGGTTA,-0.14
12,AACTTATT,0.0956
13,ACACTAGC,0.0176
14,CAATGAAG,0.115
15,AATAGTAT,0.187
16,CTATGTTC,0.103
17,ATGGGGCC,-0.377
18,AACAGAGA,-0.0334
19,CCATCAAC,0.105
20,AAGTAGTA,0.0342
